From the supplement of paper PMC3334620
Over roughly 33,000 sequences, “E-score (-0.5 to 0.5)” has its median near -0.043; the highest 2% begin near 0.37. Some of the results follow.

The sequences below were run against T1, Upc2 (UniProt Q12151) (assay: PBM E-score (8-mer binding enrichment) (E-score (-0.5 to 0.5)); higher = stronger / more preferred TF binding; most listed sequences are background and not binding sites). Conditions: protein concentration: 200 nM; construct: GST-full length.
T1 sequence: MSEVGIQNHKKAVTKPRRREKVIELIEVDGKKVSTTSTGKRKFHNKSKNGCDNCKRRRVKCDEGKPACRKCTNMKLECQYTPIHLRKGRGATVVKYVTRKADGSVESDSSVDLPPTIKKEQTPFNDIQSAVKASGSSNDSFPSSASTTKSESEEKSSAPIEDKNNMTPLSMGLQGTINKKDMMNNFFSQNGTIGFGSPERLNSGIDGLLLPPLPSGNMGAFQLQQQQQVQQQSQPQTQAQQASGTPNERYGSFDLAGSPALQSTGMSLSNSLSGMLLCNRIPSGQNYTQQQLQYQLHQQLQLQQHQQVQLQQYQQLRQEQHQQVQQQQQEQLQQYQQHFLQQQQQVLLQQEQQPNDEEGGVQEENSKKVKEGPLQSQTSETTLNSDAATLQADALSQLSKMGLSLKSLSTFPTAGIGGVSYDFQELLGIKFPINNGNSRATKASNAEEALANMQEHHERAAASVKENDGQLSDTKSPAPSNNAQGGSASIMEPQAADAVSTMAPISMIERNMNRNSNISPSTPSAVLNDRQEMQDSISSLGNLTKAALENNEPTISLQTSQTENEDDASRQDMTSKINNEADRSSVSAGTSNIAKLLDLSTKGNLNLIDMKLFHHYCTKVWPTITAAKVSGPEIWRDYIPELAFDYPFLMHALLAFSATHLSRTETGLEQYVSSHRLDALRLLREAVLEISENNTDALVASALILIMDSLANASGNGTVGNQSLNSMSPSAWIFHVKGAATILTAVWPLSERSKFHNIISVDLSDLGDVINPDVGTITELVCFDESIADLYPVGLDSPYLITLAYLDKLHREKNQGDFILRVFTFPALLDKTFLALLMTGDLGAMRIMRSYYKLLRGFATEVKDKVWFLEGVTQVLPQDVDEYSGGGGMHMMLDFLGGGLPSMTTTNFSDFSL
In short: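 Using PURExpress in vitro transcription/translation, GST-tagged yeast transcription factors were made in full-length or DNA-binding-domain form. These were applied at about 100-200 nM to double-stranded universal all-10-mer Agilent arrays, and bound protein was detected with fluorescent anti-GST. Scans were normalised with masliner before the Universal PBM Analysis Suite assigned E-scores to ungapped eight-base words pooled with their reverse complements.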

First: ATCTAAAT
Second: CTTCGGTC
The “PBM E-score” value of the first is lower: 0.0488 for the first, 0.0609 for the second.

Going from CTTTCGCA to CACGAGGC, the “PBM E-score” value rises from 0.00441 to 0.116.

First: CGGCAAAA
Second: CGGTCGTA
The “PBM E-score” value of the first is lower: -0.0987 for the first, 0.442 for the second.

First: GCAAAAGC
Second: GGGGTCCA
The “PBM E-score” value of the first is higher: 0.0231 for the first, -0.0568 for the second.

First: ACGAGGCA
Second: CAAGGTAG
The “PBM E-score” value of the first is higher: 0.408 for the first, -0.195 for the second.

Compared with GCCATCGA, CAGGAGGC is lower in “PBM E-score” value: -0.0658 for the first, -0.265 for the second.

Compared with AATGAGCT, ATCGCAAC is higher in “PBM E-score” value: -0.163 for the first, 0.0638 for the second.

Going from AATATGCA to ATCAGACC, the “PBM E-score” value falls from -0.0358 to -0.154.

First: GATGTAGC
Second: GGAAGTCC
The “PBM E-score” value of the first is higher: -0.023 for the first, -0.256 for the second.

First: CTGATTCA
Second: CAGTTGGA
The “PBM E-score” value of the first is lower: -0.199 for the first, -0.0009 for the second.

Going from GACTATCA to CGTCGATA, the “PBM E-score” value rises from -0.0406 to -0.028.

First: ATCAAAAC
Second: AAAGGCTC
The “PBM E-score” value of the first is lower: 0.0147 for the first, 0.0968 for the second.

Going from ACCTCTTA to TCTCACAA, the “PBM E-score” value falls from 0.203 to -0.0538.

Compared with ATGTTAAA, CATTGCCC is lower in “PBM E-score” value: -0.0134 for the first, -0.205 for the second.

Compared with ACGGATGG, ACGAGGGC is higher in “PBM E-score” value: 0.254 for the first, 0.388 for the second.

Compared with GCCTCATA, AGTAATCC is lower in “PBM E-score” value: -0.0561 for the first, -0.0662 for the second.

Compared with AGGGCGAG, GAAGAGTC is higher in “PBM E-score” value: -0.142 for the first, 0.0491 for the second.

Compared with CCCTGATA, CGGTAAAG is higher in “PBM E-score” value: -0.148 for the first, 0.223 for the second.

Compared with CTGGACCC, ACGATCTA is higher in “PBM E-score” value: -0.211 for the first, 0.245 for the second.

Compared with ACTCAAGC, GATCGCAC is higher in “PBM E-score” value: -0.298 for the first, 0.123 for the second.

First: ACTGGTCG
Second: GACAGCAA
The “PBM E-score” value of the first is higher: -0.0543 for the first, -0.127 for the second.

Compared with CGACCACC, GATGTTTA is higher in “PBM E-score” value: -0.0258 for the first, 0.0725 for the second.

Going from ATAATAGA to CCACCACC, the “PBM E-score” value falls from -0.0332 to -0.0443.

Compared with AATTGAAT, CTACCACC is higher in “PBM E-score” value: -0.168 for the first, -0.134 for the second.

Compared with GTGACCCA, CGTGCACG is higher in “PBM E-score” value: -0.193 for the first, 0.134 for the second.

First: ATCCGCGG
Second: AATAACGA
The “PBM E-score” value of the first is lower: -0.0584 for the first, 0.16 for the second.

First: CGATACCC
Second: AGTGTTCG
The “PBM E-score” value of the first is higher: 0.231 for the first, 0.182 for the second.

Going from AGACAGGC to AAGGTCCT, the “PBM E-score” value falls from -0.061 to -0.0749.

First: ATACACGA
Second: AATCGAGT
The “PBM E-score” value of the first is higher: 0.261 for the first, 0.0695 for the second.

Compared with CATACATA, CACATAGA is lower in “PBM E-score” value: 0.0825 for the first, -0.091 for the second.

Going from ACAGATCA to GGCGTGGA, the “PBM E-score” value falls from -0.113 to -0.294.

Compared with CACTCTCA, GAAATTAA is higher in “PBM E-score” value: -0.103 for the first, 0.107 for the second.

Going from CCTTACGA to ATCTCTAA, the “PBM E-score” value falls from 0.407 to -0.0535.

Compared with TCATAACA, ATTTATCC is higher in “PBM E-score” value: 0.0608 for the first, 0.174 for the second.

First: TAAAATTA
Second: AGAACCCG
The “PBM E-score” value of the first is lower: 0.0481 for the first, 0.0767 for the second.

First: CAAGCAGG
Second: ACGGCCAA
The “PBM E-score” value of the first is lower: -0.258 for the first, 0.029 for the second.

Compared with CGTCTCGC, AGCAACTC is lower in “PBM E-score” value: 0.154 for the first, -0.104 for the second.

First: AATCTGAA
Second: AATCTAGC
The “PBM E-score” value of the first is higher: -0.00542 for the first, -0.246 for the second.

First: GCATCAGC
Second: TAGCATCA
The “PBM E-score” value of the first is lower: -0.0568 for the first, 0.0711 for the second.

First: TCCCAAAA
Second: CTCCGTTC
The “PBM E-score” value of the first is lower: -0.0439 for the first, 0.303 for the second.

First: CACAGACC
Second: ACACTCCT
The “PBM E-score” value of the first is lower: -0.135 for the first, -0.0951 for the second.

Compared with AATGATAA, AATTCCAC is higher in “PBM E-score” value: -0.0482 for the first, -0.028 for the second.

First: GGCCAACC
Second: GGCCAGAC
The “PBM E-score” value of the first is higher: -0.0824 for the first, -0.255 for the second.
